# Measured values reported in the BET-seq Pho4 binding data (Le et al. 2018).
# Some of the results follow. The energies were worked out here from pooled read counts, against the library average; single values are noisy.
# Target: T1, Pho4 (S. cerevisiae) (UniProt P07270)
# T1 sequence: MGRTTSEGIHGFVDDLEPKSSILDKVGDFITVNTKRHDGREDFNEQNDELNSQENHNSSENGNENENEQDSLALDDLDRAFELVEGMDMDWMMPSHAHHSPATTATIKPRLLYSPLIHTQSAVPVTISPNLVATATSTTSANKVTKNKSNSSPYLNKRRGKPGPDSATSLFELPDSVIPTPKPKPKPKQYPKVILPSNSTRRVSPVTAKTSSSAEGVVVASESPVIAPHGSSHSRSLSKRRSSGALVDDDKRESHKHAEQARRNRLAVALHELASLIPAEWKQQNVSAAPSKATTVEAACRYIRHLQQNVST
# Assay: relative binding free energy (BET-seq); higher = weaker binding
# Details: reference: library average
row,Sequence,relative binding free energy
1,GGATACACGTGGAGAG,0.24 kcal/mol
2,TAAGACACGTGTCTGT,0.02 kcal/mol
3,CGGGGCACGTGGGAGT,-0.13 kcal/mol
4,GTTTTCACGTGGATAA,0.23 kcal/mol
5,ATTTACACGTGTTGAT,0.19 kcal/mol
6,AAATGCACGTGGGAAG,0.12 kcal/mol
7,GGGTGCACGTGTATCA,-0.03 kcal/mol
8,AATTTCACGTGTGTCG,0.39 kcal/mol
9,TTTGGCACGTGCAATG,-0.14 kcal/mol
10,ATTCACACGTGGGAAG,0.09 kcal/mol
11,TATCTCACGTGATTGT,0.33 kcal/mol
12,TTATTCACGTGGGCTG,0.04 kcal/mol
13,TTTCTCACGTGATTGT,0.3 kcal/mol
14,TCGTGCACGTGGTCAG,-0.12 kcal/mol
15,ATGATCACGTGGCATG,0.04 kcal/mol
16,ATGTCCACGTGATGGG,0.03 kcal/mol
17,CGGGCCACGTGTGGTA,-0.07 kcal/mol
18,GGATACACGTGGGGTA,-0.08 kcal/mol
19,TGGTACACGTGTTGGA,0.04 kcal/mol
20,TGATCCACGTGTTCGG,0.15 kcal/mol
21,TAGTCCACGTGATAGG,0.17 kcal/mol
22,TTAGGCACGTGGGTAA,-0.19 kcal/mol
23,GGTGCCACGTGGAAAT,0.2 kcal/mol

row,Sequence,relative binding free energy
1,GAGCGCACGTGTAGTG,0.03 kcal/mol
2,GAGCGCACGTGGAGGT,0.01 kcal/mol
3,TTGAGCACGTGGTCTA,-0.08 kcal/mol
4,AATGTCACGTGTTGTG,0.09 kcal/mol
5,GATATCACGTGAGGTA,0.45 kcal/mol
6,CGGAACACGTGTGGGA,0.05 kcal/mol
7,GTCTGCACGTGTTGTA,0.07 kcal/mol
8,ACTCGCACGTGTGTGT,-0.12 kcal/mol
9,AGTTCCACGTGGCGTG,0.06 kcal/mol
10,TAGGTCACGTGCTATG,-0.15 kcal/mol
11,TTTGTCACGTGTCACT,0.12 kcal/mol
12,GTGGTCACGTGCCGGC,0.12 kcal/mol
13,GAGGGCACGTGCAAGG,0.04 kcal/mol
14,AGGGTCACGTGCGTTC,0.1 kcal/mol
15,TTCGCCACGTGTGAGT,0.07 kcal/mol
16,GATGTCACGTGTTCGG,0.13 kcal/mol
17,CGTGTCACGTGTCTTT,0.02 kcal/mol
18,TCTGGCACGTGGTTAG,-0.15 kcal/mol
19,GGCGGCACGTGGTGGT,0.02 kcal/mol
20,CGGGTCACGTGTAGTA,0.08 kcal/mol
21,TAGTGCACGTGACTTG,0.06 kcal/mol
22,GTGGCCACGTGAAGGG,0.07 kcal/mol
23,GGTTCCACGTGAGGTA,0.18 kcal/mol

row,Sequence,relative binding free energy
1,GTATACACGTGAGGGA,0.37 kcal/mol
2,GAATGCACGTGATGGA,0.21 kcal/mol
3,TTTGGCACGTGACGGT,0.08 kcal/mol
4,CGTGTCACGTGGAGCG,0 kcal/mol
5,TGTGCCACGTGTTTAG,-0.01 kcal/mol
6,TGGGCCACGTGTGCGG,-0.17 kcal/mol
7,GGAGGCACGTGCAGGG,-0.07 kcal/mol
8,TAGGTCACGTGTTCGG,0.13 kcal/mol
9,TGGAGCACGTGGAGAA,-0.14 kcal/mol
10,TTTTCCACGTGAAGGG,0.33 kcal/mol
11,ATATGCACGTGTTTAA,-0.19 kcal/mol
12,TCAGGCACGTGTATTT,0.06 kcal/mol
13,TATTGCACGTGCGGCG,-0.09 kcal/mol
14,TGGTGCACGTGCTGGT,-0.04 kcal/mol
15,GTTTTCACGTGGAGTG,0.31 kcal/mol
16,ATGATCACGTGGGGGA,-0.02 kcal/mol
17,TTATACACGTGTGGAC,0.18 kcal/mol
18,AGTGTCACGTGTTATT,-0.03 kcal/mol
19,TGAGTCACGTGTGTGC,0.09 kcal/mol
20,GGCTTCACGTGTGTAG,0.31 kcal/mol
21,TTGGACACGTGCGTAG,0.08 kcal/mol
22,TTTAACACGTGTTATG,0.14 kcal/mol
23,TTGGTCACGTGTTAAC,0.13 kcal/mol

row,Sequence,relative binding free energy
1,TTTAGCACGTGGAACG,0.07 kcal/mol
2,CCGGGCACGTGGTTGG,-0.15 kcal/mol
3,TTTTTCACGTGTGGGG,0.4 kcal/mol
4,TGCTACACGTGGTCGG,-0.06 kcal/mol
5,AGTGTCACGTGATGAG,0.18 kcal/mol
6,GGCGGCACGTGATAGT,0.08 kcal/mol
7,GGTCACACGTGGTGAA,0.16 kcal/mol
8,GTGGTCACGTGTGTTC,0.23 kcal/mol
9,CGTGTCACGTGGTGGT,-0.01 kcal/mol
10,AATTACACGTGGAAGT,0.18 kcal/mol
11,GATTTCACGTGGATGT,0.27 kcal/mol
12,ACAAGCACGTGGTGTG,-0.29 kcal/mol
13,TTGCGCACGTGGTTTG,-0.11 kcal/mol
14,GGGTGCACGTGCGACG,-0.09 kcal/mol
15,GTAGGCACGTGGGAGT,-0.17 kcal/mol
16,CGGGTCACGTGGGAAT,-0.02 kcal/mol
17,TTGTCCACGTGTGGCT,-0.01 kcal/mol
18,TCGCGCACGTGTGGGT,-0.04 kcal/mol
19,GCTGTCACGTGATATT,0.3 kcal/mol
20,GGTCTCACGTGCTGTT,0.24 kcal/mol
21,TATATCACGTGGAAGT,0.22 kcal/mol
22,CGTGGCACGTGGGATG,-0.17 kcal/mol
23,TGTAGCACGTGAGGAT,0.25 kcal/mol

row,Sequence,relative binding free energy
1,CAGCGCACGTGGTAGG,-0.2 kcal/mol
2,ATCGACACGTGTGGGT,0.1 kcal/mol
3,CAGGCCACGTGGTTGG,-0.21 kcal/mol
4,AGTCGCACGTGGGGAA,-0.15 kcal/mol
5,TGGTGCACGTGGGTTT,-0.11 kcal/mol
6,AGAGACACGTGATTGG,0.13 kcal/mol
7,GGGTCCACGTGGGGTA,-0.2 kcal/mol
8,ATAGGCACGTGTTCGA,-0.18 kcal/mol
9,TCATTCACGTGTGGGA,0.34 kcal/mol
10,ATAATCACGTGATTGG,0.16 kcal/mol
11,TGAAGCACGTGCGGGT,-0.15 kcal/mol
12,GGGGTCACGTGCAAGT,0.14 kcal/mol
13,TATGTCACGTGAGAAA,0.21 kcal/mol
14,AGAGACACGTGGAGTA,0.11 kcal/mol
15,AATGGCACGTGCGCGG,-0.32 kcal/mol
16,AGGTACACGTGTGAGT,0.17 kcal/mol
17,AATGTCACGTGCTAGT,0.12 kcal/mol
18,GGAATCACGTGTGTGC,0.34 kcal/mol
19,GGGTACACGTGTGCTG,0.08 kcal/mol
20,GAAGTCACGTGATGTA,0.31 kcal/mol
21,GAGAGCACGTGGGTCT,-0.14 kcal/mol
22,TTTTTCACGTGCGTTA,0.2 kcal/mol
23,AATGTCACGTGGTACA,0.04 kcal/mol
